Where “and” joins values, the source holds several entries; their conditions need not be identical. Identical values can stand only once. Screen size: about 420,000 compounds; about 64,000 (15%) were called active. This list was built around the results that the source calls inconclusive (neither active nor inactive); the mix of calls is not that of the screen. Calls follow the shape of the dose curve; as a rule, active = well fitted inhibition curve with a large enough effect; inconclusive = small, poorly fitted or top-dose-only effect; inactive = flat fitted curve, though single readings scatter. No potency is given beside an inconclusive call; the fits are too rough.
Assay: qHTS for Inhibitors of human tyrosyl-DNA phosphodiesterase 1 (TDP1): qHTS in cells in absence of CPT; also: nearly all actives have a fitted effect of over 55% in size
Conditions: DT40 Tdp1-/- hTDP1 cells, no CPT, ATP luminescence, 48 h; activity change, negative = growth inhibition: at 46.2 µM (top of the series)
In short: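 Chicken DT40 Tdp1-/- cells complemented with human TDP1, screened without camptothecin (DMSO vehicle only), 400 cells/well. Compounds pin-transferred, cells incubated at 37 °C for at least 48 hr. Growth read as ATP-dependent luminescence (CellTiter-Glo, 30 min at RT).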
% is scaled to controls: 0 for no effect and ±100 for the full control effect; potency is read from the fitted curve at half-maximal effect; tags tell the direction and shape of the fitted curve.

Compound | Potency | activity change, negative = growth inhibition
CCOC(=O)C1=C(COC(=O)COc2ccc(C#N)cc2)NC(=O)NC1C (configuration not stated) | active: 16.4 µM | –
O=C(/C=C/c1ccccc1[N+](=O)[O-])c1ccccc1Br | active: 8.2 µM | –
Cc1occc1C(=O)NNC(=O)Nc1ccc(Cl)c(Cl)c1 | inconclusive [inhibitor, single point] | –
O=[N+]([O-])c1cccc(C2(O)COc3ccccc3O2)c1 (configuration not stated) | inactive | –
CC1(C(=O)Nc2cccnc2)Cc2c(-c3cccc(C(F)(F)F)c3)ccnc2O1 (configuration not stated) | active: 23.1 µM | –
CN(Cc1ccc(C(F)(F)F)cc1)C(=O)[C@H]1O[C@@H](n2cnc3c(N)ncnc32)[C@H](O)[C@@H]1O | inconclusive [inhibitor, partial curve] | –
CCC(C)(C)n1nnnc1CN1CCN(c2nc3ccc(C)cc3cc2C#N)CC1 | inconclusive [inhibitor, single point] | –
CCCc1cc(=O)[nH]c(SCC(=O)NCc2ccc3c(c2)OCO3)n1 | inactive | –
CC(C)N(C(=O)CSc1ccc(S(=O)(=O)N2CCCCC2)cn1)c1ccccc1 | active: 14.6 µM | –
CC(=O)N1CCN(c2ccc(NCc3ccc(C(C)C)cc3)cc2)CC1 | inconclusive [inhibitor, partial curve] | –
COc1ccc(N=C2C(=S)N(c3ccc(OC)cc3)C(=NS(=O)(=O)c3ccccc3)N2c2ccccc2)cc1 | active: 1.46 µM | –
COc1ccc(-c2nc3ccc(NS(=O)(=O)c4ccc(C)cc4)cc3o2)cc1 | active: 10.3 µM | –
Cc1nn(-c2ccccc2)c(-c2ccccc2[N+](=O)[O-])c1C(=O)O | inactive | –
O=CN/C=C/c1cc(O)ccc1O | active: 4.61 µM | –
S=c1[nH]nc(-c2cccs2)n1C1CCCCC1 | inactive | –
CC(C)(c1ccccc1)c1ccc(OCCn2cnc3ccccc3c2=O)cc1 | inconclusive [inhibitor, single point] | –
C[C@@H]1CC2[C@@H]3CC[C@H]4CC(=O)CC[C@]4(C)C3=CC[C@]2(C)[C@@]1(O)C(=O)CO (some centres not stated) | inconclusive [inhibitor, single point] | –
CC(C)OCCCNC(=O)c1ccc(CSc2nc3cccnc3n2Cc2ccccc2)cc1 | active: 23.1 µM | –
CCc1sc(NC(C)=O)nc1-c1ccccc1 | inconclusive [inhibitor, single point] | –
COC(=O)c1c(SCC(=O)Nc2cc(OC)cc(OC)c2)[nH]c2ccc(C)cc2c1=O | inconclusive [inhibitor, single point] | –
O=C(CSc1nc2sc3c(c2c(=O)n1-c1ccccc1)CCCC3)N/N=C/c1ccccc1C(=O)O | inactive | –
Cc1ccc(Cn2c(C(=O)NCc3ccccc3Cl)cc3sccc32)cc1 | inconclusive [inhibitor, single point] | –
CC(=O)NC(CCS(C)(=O)=O)C(=O)Nc1ccc2c(c1)OCO2 (configuration not stated) | inactive | –
CCC1=C(c2ccc(C)cc2)S(=O)(=O)N=C1N1CCC(C(=O)Nc2ccccc2F)CC1 | inconclusive [inhibitor, single point] | –

Compound | Potency | activity change, negative = growth inhibition
CC1=C(C(=O)N2CCCCCC2)CC(CC(=O)NC2CCCCC2)C(=O)N1Cc1ccc(F)cc1 (configuration not stated) | inconclusive [inhibitor, single point] | –
COc1ccccc1/C=C/C=N/NC(=O)CCn1cnc2ccccc21 | active: 10.3 µM | –
Cc1nc2sccn2c(=O)c1S(=O)(=O)Nc1ccc(N2CCOCC2)c(Cl)c1 | active: 9.2 µM and active: 29.1 µM | –
CC1(c2nnc(-c3ccccc3)o2)CC(c2ccc(Cl)cc2)=NO1 (configuration not stated) | inactive | –
COc1ccc(C(=O)NCCn2cc(SCC(=O)NCC3CCCO3)c3ccccc32)cc1OC (configuration not stated) | – | inconclusive: -32.3% [inhibitor]
Cc1cc(OCCCCCNCCO)ccc1Cl | active: 16.4 µM | –
Cc1onc(-c2ccccc2)c1C(=O)Nc1cccc(S(=O)(=O)NC2=NCCC2)c1 | inactive | –
O=S(=O)(Nc1cccc(S(=O)(=O)N2CCOCC2)c1)c1cccs1 | inactive | –
CCOC(=O)C1Nc2c(F)cc(C)cc2C2c3ccccc3CC12 (configuration not stated) | inconclusive [inhibitor, single point] | –
O=C(O)c1c(NC(=O)N2CCCC2)sc2c1CCCC2 | inactive | –
O=C(Nc1ccccc1N1CCCCC1)c1ccc(Cl)cc1 | inactive | –
Cc1nc(NC(=O)CCc2ccccc2)sc1C | inconclusive [inhibitor, single point] | –
CN(NC(=O)NN(C)C(=O)c1ccccc1)C(=O)c1ccccc1 | inconclusive [inhibitor, single point] | –
COc1ccc(CNC(=O)c2cc(C3CC3)nc3c2cnn3C(C)C)cc1 | inconclusive [inhibitor, single point] | –
O=C(O)CCC(=O)Nc1ccc(Sc2ccc([N+](=O)[O-])cc2)cc1 | – | inconclusive: 1.46% [inhibitor]
CCC1CCC(C(=O)NC(C(=O)Nc2cccc(OC)c2)C(C)C)CC1 (configuration not stated) | inactive | –
Cc1ccccc1CN1CCN(C(=O)c2ccc(S(=O)(=O)NCc3ccco3)cc2)CC1 | inconclusive [inhibitor, single point] | –
Cc1cc(CN2CCN(c3ccccc3F)CC2)cs1 | inconclusive [inhibitor, partial curve] | –
CCOc1ccc(CNCc2c(C(=O)O)c(C)n(Cc3cccc(OC)c3)c2C)cc1OC | inconclusive [inhibitor, single point] | –
CO/N=C/C(=N\Nc1ccc(OC)cc1)C(=O)c1ccc(F)cc1 | inconclusive [inhibitor, single point] | –
O=c1ccn([C@@H]2O[C@H](CNCc3c(OCc4ccccc4F)ccc4ccccc34)[C@@H](O)[C@H]2O)c(=O)[nH]1 | inconclusive [inhibitor, single point] | –
O=C(Nc1cccc(S(=O)(=O)Nc2ccc(SC(F)F)cc2)c1)C1CCC1 | inconclusive [inhibitor, partial curve, poor fit] | –
O=C(CSc1nnc(SCc2ccccc2Cl)s1)N/N=C/c1c[nH]c2ccccc12 | inconclusive [inhibitor, single point] | –

From PubChem BioAssay AID686978 (National Center for Advancing Translational Sciences (NCATS), 2013)
